From paper PMC5892938
Some of the results follow. At the low end of the ranking the order means little.

target: GST-SBP-SLBP (stem-loop binding protein) (UniProt Q14493); assay: targeted RNA Bind-n-Seq; conditions: RBNS binding buffer: 25 mM Tris pH 7.5, 150 mM KCl, 3 mM MgCl2, 0.1% Tween, 0.5 mg/mL BSA, 1 mM DTT; 27 nM protein, 750 pM RNA pool; temperature not stated; high values mean tight binding;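 also: DESeq read counts versus GST-SBP nonspecific binding control pulldown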

Sequence | binding signal (log2 fold change)
GGUCACGUCUCAAUCAACUCUAUUCCCAGGGAAACCCCUGGCAUAUUCAACAGCUCGCAGUCAAG | 0.164
GGUCACGUCUCAAUCAACUCAUUUCCAGGAGUUUUCUCCUGCAUUUUCAACAGCUCGCAGUCAAG | -0.0926
GGUCACGUCUCAAUCAACUCUUCCCCCAGGGAAAACCCUGGUAUUCUCAACAGCUCGCAGUCAAG | -0.161
GGUCACGUCUCAAUCAACUCUUCCCCCAGGGAAACCCCUGGUAAUGUCAACAGCUCGCAGUCAAG | 0.182
GGUCACGUCUCAAUCAACUCUAAAGAGGGGGGGAAAACCCCUUUUCCCUCAAUAUCAACAGCUCGCAGUCAAG | 0.0602
GGUCACGUCUCAAUCAACUCAAUCCCCAGGGAAAGCCCUGGCUUUUUCAACAGCUCGCAGUCAAG | 0.0136
GGUCACGUCUCAAUCAACUCUAUUCCAGGAGUUUACUCCUGCAUAUUCAACAGCUCGCAGUCAAG | -0.0348
GGUCACGUCUCAAUCAACUCUCUCGAGGGGGGGAAAACCCCUUUGCCCUCAUUUUCAACAGCUCGCAGUCAAG | -0.166
GGUCACGUCUCAAUCAACUCAUCUCCAGGAGUUUCCUCCUGUAUUUUCAACAGCUCGCAGUCAAG | -0.156
GGUCACGUCUCAAUCAACUCUUUCUCCAGGGAAAACCCUGGCAUAUUCAACAGCUCGCAGUCAAG | -0.134
GGUCACGUCUCAAUCAACUCUUCCUCAGGAGUUUUCUCCUGUUAACUCAACAGCUCGCAGUCAAG | 0.0915
GGUCACGUCUCAAUCAACUCCCUAGAGGGGGGGAAAACCCCUUUACCCUCCAUUUCAACAGCUCGCAGUCAAG | -0.455
GGUCACGUCUCAAUCAACUCUCCUGAGGGGGGGAAAACCCCUUUACCCUCUAAAUCAACAGCUCGCAGUCAAG | 0.0339
GGUCACGUCUCAAUCAACUCAAUUCCAGGAGUUUUCUCCUGUUUUUUCAACAGCUCGCAGUCAAG | -0.0899
GGUCACGUCUCAAUCAACUCUACUUCCAGGGAAAACCCUGGCAAUUUCAACAGCUCGCAGUCAAG | 0.201
GGUCACGUCUCAAUCAACUCUAUCCCCAGGGAAAUCCCUGGUUUUUUCAACAGCUCGCAGUCAAG | -0.112
GGUCACGUCUCAAUCAACUCAAUCUCCAGGGAAAUCCCUGGCUAAUUCAACAGCUCGCAGUCAAG | 0.315
GGUCACGUCUCAAUCAACUCUUUUCCAGGAGUUUCCUCCUGCAUUUUCAACAGCUCGCAGUCAAG | 0.203
GGUCACGUCUCAAUCAACUCUAUUCCCAGGGAAACCCCUGGCAUACUCAACAGCUCGCAGUCAAG | 0.311
GGUCACGUCUCAAUCAACUCAUAAGAGGGGGGGAAAACCCCUUUACCCUCACACUCAACAGCUCGCAGUCAAG | 0.455
GGUCACGUCUCAAUCAACUCCUAAGAGGGGGGGAAAACCCCUUUGCCCUCAAUAUCAACAGCUCGCAGUCAAG | -0.191
GGUCACGUCUCAAUCAACUCUACUUCCAGGGAAAACCCUGGUAAUCUCAACAGCUCGCAGUCAAG | -0.0047
GGUCACGUCUCAAUCAACUCUAUCUCCAGGGAAAUCCCUGGUUAUUUCAACAGCUCGCAGUCAAG | -0.149
GGUCACGUCUCAAUCAACUCUAUCUCCAGGGAAAGCCCUGGCAUUUUCAACAGCUCGCAGUCAAG | 0.024
GGUCACGUCUCAAUCAACUCUUUCCCCAGGGAAAGCCCUGGCUUAUUCAACAGCUCGCAGUCAAG | -0.0818

Sequence | binding signal (log2 fold change)
GGUCACGUCUCAAUCAACUCUUUCGCAGGAGUUUACUCCUGGUAAUUCAACAGCUCGCAGUCAAG | -0.0209
GGUCACGUCUCAAUCAACUCUAGGUCAGGAGUUUUCUCCUGUAAUUUCAACAGCUCGCAGUCAAG | 0.0515
GGUCACGUCUCAAUCAACUCAUCGUCAGGAGUUUGCUCCUGCUUUUUCAACAGCUCGCAGUCAAG | 0.176
GGUCACGUCUCAAUCAACUCAGUUCCAGGAGUUUACUCCUGUAUAUUCAACAGCUCGCAGUCAAG | -0.0101
GGUCACGUCUCAAUCAACUCCCUCGAGGGGGGGAAAACCCCUUUACCCUCUUUAUCAACAGCUCGCAGUCAAG | -0.123
GGUCACGUCUCAAUCAACUCCACGGAGGGGGGGAAAACCCCUUUACCCUCAAAAUCAACAGCUCGCAGUCAAG | -0.47
GGUCACGUCUCAAUCAACUCAUCGCCCAGGGAAACCCCUGGUUAUUUCAACAGCUCGCAGUCAAG | -0.191
GGUCACGUCUCAAUCAACUCUUUCCCCAGGGAAACCCCUGGUAGUCUCAACAGCUCGCAGUCAAG | -0.102
GGUCACGUCUCAAUCAACUCCAUAGAGGGGGGGAAAACCCCUUUACCCUCAUCAUCAACAGCUCGCAGUCAAG | -0.617
GGUCACGUCUCAAUCAACUCAUCCUCAGGAGUUUGCUCCUGCUUAUUCAACAGCUCGCAGUCAAG | 0.0541
GGUCACGUCUCAAUCAACUCCCUAGAGGGGGGGAAAACCCCUUUACCCUCCAUAUCAACAGCUCGCAGUCAAG | 0.133
GGUCACGUCUCAAUCAACUCAUUUUCCAGGGAAAUCCCUGGUUUUUUCAACAGCUCGCAGUCAAG | -0.249
GGUCACGUCUCAAUCAACUCAUCUCCAGGAGUUUUCUCCUGUAAAGUCAACAGCUCGCAGUCAAG | -0.109
GGUCACGUCUCAAUCAACUCUACUUCCAGGGAAAACCCUGGCUAUCUCAACAGCUCGCAGUCAAG | 0.22
GGUCACGUCUCAAUCAACUCUAAAGAGGGGGGGAAAACCCCUUUACCCUCAUUUUCAACAGCUCGCAGUCAAG | -0.0582
GGUCACGUCUCAAUCAACUCAUCUUCAGGAGUUUCCUCCUGUUAUCUCAACAGCUCGCAGUCAAG | 0.0709
GGUCACGUCUCAAUCAACUCUUCUUCAGGAGUUUGCUCCUGCAUAUUCAACAGCUCGCAGUCAAG | -0.115
GGUCACGUCUCAAUCAACUCAUUCUCAGGAGUUUCCUCCUGUUAUCUCAACAGCUCGCAGUCAAG | 0.0299
GGUCACGUCUCAAUCAACUCCCAAGAGGGGGGGAAAACCCCUUUACCCUCAUUAUCAACAGCUCGCAGUCAAG | -0.146
GGUCACGUCUCAAUCAACUCUUUCUCCAGGGAAAGCCCUGGCUAACUCAACAGCUCGCAGUCAAG | 0.0826
GGUCACGUCUCAAUCAACUCACAAGAGGGGGGGAAAACCCCUUUACCCUCACUCUCAACAGCUCGCAGUCAAG | 0.304
GGUCACGUCUCAAUCAACUCUUCUCCCAGGGAAAACCCUGGCAUAUUCAACAGCUCGCAGUCAAG | 0.0621
GGUCACGUCUCAAUCAACUCAUCUCCAGGAGUUUUCUCCUGCAAAGUCAACAGCUCGCAGUCAAG | 0.156
GGUCACGUCUCAAUCAACUCAAUCUCCAGGGAAACCCCUGGCAAAGUCAACAGCUCGCAGUCAAG | 0.012
GGUCACGUCUCAAUCAACUCAUCCUCCAGGGAAAGCCCUGGUAAUCUCAACAGCUCGCAGUCAAG | -0.27

Sequence | binding signal (log2 fold change)
GGUCACGUCUCAAUCAACUCUUUUUCCAGGGAAAGCCCUGGCAAUCUCAACAGCUCGCAGUCAAG | -0.0501
GGUCACGUCUCAAUCAACUCAUCUCCCAGGGAAACCCCUGGUUAUCUCAACAGCUCGCAGUCAAG | 0.231
GGUCACGUCUCAAUCAACUCUACAGAGGGGGGGAAAACCCCUUUACCCUCCUAAUCAACAGCUCGCAGUCAAG | -0.101
GGUCACGUCUCAAUCAACUCUAUCUCCAGGGAAAACCCUGGCUAUUUCAACAGCUCGCAGUCAAG | 0.433
GGUCACGUCUCAAUCAACUCAAUCUCCAGGGAAAUCCCUGGUAUAUUCAACAGCUCGCAGUCAAG | 0.0858
GGUCACGUCUCAAUCAACUCAAUUUCAGGAGUUUGCUCCUGUUUAUUCAACAGCUCGCAGUCAAG | 0.0538
GGUCACGUCUCAAUCAACUCAACAGAGGGGGGGAAAACCCCUUUACCCUCCAUAUCAACAGCUCGCAGUCAAG | -0.134
GGUCACGUCUCAAUCAACUCAAUUUCAGGAGUUUGCUCCUGUAUUCUCAACAGCUCGCAGUCAAG | 0.0216
GGUCACGUCUCAAUCAACUCUUACGAGGGGGGGAAAACCCCUUUACCCUCAUCCUCAACAGCUCGCAGUCAAG | 0.156
GGUCACGUCUCAAUCAACUCUUCUCCCAGGGAAACCCCUGGUAUUCUCAACAGCUCGCAGUCAAG | 0.0922
GGUCACGUCUCAAUCAACUCUUUCCCCAGGGAAAGCCCUGGCAAUCUCAACAGCUCGCAGUCAAG | 0.161
GGUCACGUCUCAAUCAACUCAACUUCAGGAGUUUACUCCUGCUUAUUCAACAGCUCGCAGUCAAG | 0.0699
GGUCACGUCUCAAUCAACUCAACUUCAGGAGUUUUCUCCUGUUUUCUCAACAGCUCGCAGUCAAG | -0.18
GGUCACGUCUCAAUCAACUCAACUCCCAGGGAAAACCCUGGCUAACUCAACAGCUCGCAGUCAAG | 0.146
GGUCACGUCUCAAUCAACUCAUCUUCCAGGGAAACCCCUGGUUUAUUCAACAGCUCGCAGUCAAG | 0.102
GGUCACGUCUCAAUCAACUCAUUUCCAGGAGUUUACUCCUGCAAACUCAACAGCUCGCAGUCAAG | -0.00363
GGUCACGUCUCAAUCAACUCUUCGGCAGGAGUUUACUCCUGGAAUUUCAACAGCUCGCAGUCAAG | 0.0431
GGUCACGUCUCAAUCAACUCUAUUUCCAGGGAAAUCCCUGGCAUAUUCAACAGCUCGCAGUCAAG | 0.124
GGUCACGUCUCAAUCAACUCCUUAGAGGGGGGGAAAACCCCUUUGCCCUCCAAUUCAACAGCUCGCAGUCAAG | 0.133
GGUCACGUCUCAAUCAACUCAAUCUCCAGGGAAAACCCUGGCUUACUCAACAGCUCGCAGUCAAG | 0.131
GGUCACGUCUCAAUCAACUCAUUCCCCAGGGAAACCCCUGGUUAUCUCAACAGCUCGCAGUCAAG | -0.372
GGUCACGUCUCAAUCAACUCAAUAGAGGGGGGGAAAACCCCUUUACCCUCAUUUUCAACAGCUCGCAGUCAAG | 0.161
GGUCACGUCUCAAUCAACUCAAAAGAGGGGGGGAAAACCCCUUUACCCUCCACUUCAACAGCUCGCAGUCAAG | 0.104
GGUCACGUCUCAAUCAACUCACCCGAGGGGGGGAAAACCCCUUUACCCUCAAUAUCAACAGCUCGCAGUCAAG | -0.229
